# Data reported in PubChem BioAssay AID463173 (ICCB-Longwood Screening Facility, Harvard Medical School, 2010).
# The campaign covered roughly 52,000 compounds. About 1,700 (3.3%) were called active. No stated cut-off is given here; in the data, active means survival mostly below about 52% (no sharp cut-off); inactive means mostly above about 56%. This is one part of the list.
# System: Wild type
# Test: S. aureus survival, RN4220 and DeltatarO strains – OD600, teichoic acid synthesis inhibitors, primary screen (AID 463173)
# Conditions: S. aureus RN4220 wild type/DeltatarO growth, OD600, 18 h, hits give low values, screened at 18.75 µg/mL (by protocol)
row,Structure (SMILES),survival
1,COc1cccc(CNS(=O)(=O)c2ccc(N3CCCCS3(=O)=O)cc2)c1,inactive: 77%
2,CC1CCCCN1Cc1c(O)ccc2c(=O)c(-c3ccccc3)coc12 (configuration not stated),inactive: 69%
3,Cn1c(CNc2nc(-c3ccccc3)cs2)nnc1SCC(=O)OC1CCCCC1,inactive: 109%
4,CCOc1ccc(C(CC(=O)Nc2cc(C)c(Cl)cc2OC)N2Cc3ccccc3C2=O)cc1OC (configuration not stated),inactive: 65%
5,CSc1nc(C)c(Oc2ccccc2)c(=O)n1C,inactive: 98%
6,COc1ccc(C2CC(=O)c3c([nH]c(C(=O)OC4CCCCCC4)c3C)C2)cc1OC (configuration not stated),inactive: 78%
7,COc1cccc(CNC(=O)CCCn2nc(C)n3c(cc4sccc43)c2=O)c1,inactive: 79%
8,O=C(NC12CC3CC(CC(C3)C1)C2)N1CC2Cc3cccc(=O)n3C(C2)C1 (configuration not stated),inactive: 94%
9,COc1ccc(-n2nnc(-c3nc(-c4ccccc4C)no3)c2N)cc1Cl,inactive: 93%
10,COC(=O)c1ccccc1NC(=O)CCc1c(C)nc2c(c(C)nn2-c2ccccc2)c1C,inactive: 117%
11,COc1ccc(-c2cc(C(=O)N3CCN(c4ccc(F)cc4)CC3)no2)cc1OC,inactive: 72%
12,O=C(O)c1ccc(-c2nc3ccccc3[nH]2)cc1,inactive: 106%
13,COc1ccc(Cn2ccc3nc(C)c(C(=O)NCc4ccc(OC)cc4OC)cc3c2=O)cc1,inactive: 19%
14,O=C(NCc1ccccc1)C(c1ccco1)N(C(=O)c1csnn1)c1ccccc1 (configuration not stated),inactive: 101%
15,CCN(C(=O)c1nn(-c2ccc(C)cc2)c(=O)c2c1c1ccccc1n2C)c1ccc(F)cc1,inactive: 96%
16,O=c1[nH]c(CSc2ncc(-c3ccc(F)cc3)n2Cc2ccco2)nc2ccccc12,inactive: 102%
17,O=C(Nc1nnc(S(=O)(=O)N2CCCC2)s1)c1ccccc1F,inactive: 51%
18,Cc1cccc(OCC(=O)N(Cc2ccc(C(C)C)cc2)Cc2ccco2)c1C,inactive: 62%
19,Cc1ccc(N2CC(NC(=O)c3ccco3)CC2=O)cc1C (configuration not stated),inactive: 95%
20,CC(C)COc1ccc(-c2nonc2NC(=O)c2ccc(F)cc2)cc1,inactive: 93%
21,O=C(NCCc1ccccc1)c1ccc(CSc2nc3ccncc3n2Cc2ccccc2F)cc1,inactive: 97%
22,CCNc1nc(NC(C)C)nc(OCCNC(=O)COc2ccc(Cl)cc2C)n1,inactive: 107%

row,Structure (SMILES),survival
1,CCOC(=O)c1cc(-c2ccc(F)cc2)n(CCC(=O)NCc2ccccc2OC)c1C,inactive: 64%
2,COc1ccc(NC(=O)C(C)n2c(C)c3cnn(-c4ccccc4)c(=O)c3c2C)cc1Cl (configuration not stated),inactive: 84%
3,O=C(Cn1ncc2c([nH]c3ccccc32)c1=O)NCc1cccc(Cl)c1,active: -3%
4,CCOC(=O)c1cnc2c(C)cc(Cl)cc2c1NCCc1ccc(OC)c(OC)c1,inactive: 48%
5,COc1ccc(C(=O)NNc2ncnc3c2cnn3-c2ccccc2)cc1,inactive: 79%
6,CCOC(=O)C1CCCN(Cc2cn3c(-c4ccc(Br)cc4)nnc3s2)C1 (configuration not stated),inactive: 68%
7,CCOc1ccc(NC(=O)Cc2ccc(-n3c(C)nc4cccnc43)cc2)cc1,inactive: 143%
8,COc1ccc(NC(=O)C(=O)NCC(c2cccnc2)N2CCc3ccccc3C2)cc1 (configuration not stated),inactive: 83%
9,O=C(CC1N=C2c3ccccc3N=C(SCc3ccccc3Cl)N2C1=O)NCc1cccs1 (configuration not stated),inactive: 65%
10,CC(=O)N1CCC(N(Cc2ccco2)C(=O)Nc2ccc(Br)cc2F)CC1,inactive: 136%
11,CCN(CC)CCNC(=O)c1[nH]c2ccccc2c1Sc1ccc(Cl)cc1,inactive: 42%
12,O=C(Nc1cc(Cl)ccc1Cl)c1cc(S(=O)(=O)N2CCCc3ccccc32)ccc1F,inactive: 78%
13,Cc1ccc(NC(=O)CN2C(=O)c3ccccc3Sc3ccc(C(=O)N4CCCC4)cc32)cc1,inactive: 64%
14,COc1ccc(NC(=O)C(NC(=O)/C=C\c2ccc3c(c2)OCO3)c2ccc(OC)cc2)cc1 (configuration not stated),inactive: 79%
15,CN(C(=O)c1ccc2c(c1)N(Cc1ccccc1F)C(=O)c1ccccc1S2(=O)=O)C1CCCCC1,inactive: 149%
16,Cc1cc2n(n1)CCC(=O)N2Cc1ccc(C(=O)Nc2ccc(Br)c(C)c2)cc1,inactive: 71%
17,COc1ccc(CCN2CC(O)=C(c3nc4ccccc4c(=O)[nH]3)C2=N)cc1OC,inactive: 110%
18,Cc1ccc(-n2nc(C(=O)Nc3cccc(C#N)c3)c3c4ccccc4n(C)c3c2=O)cc1,inactive: 137%
19,CC1=C(C(=O)Nc2cccnc2)C(c2ccc(Cl)cc2)n2nc(SCc3ccccc3)nc2N1 (configuration not stated),inactive: 73%
20,COC(=O)c1c(NC(=O)COc2c(C)ccc(C)c2C)sc2c1CCC(C)C2 (configuration not stated),active: 11%
21,O=C(Cn1ncc2ccsc2c1=O)N1CCN(c2ccccc2)CC1,inactive: 75%
22,CCCSc1nc2c(c(=O)[nH]1)C(c1ccc(F)cc1F)CC(=O)N2 (configuration not stated),inactive: 87%

row,Structure (SMILES),survival
1,O=S(=O)(Nc1cccc(-c2ccc(N3CCOCC3)nn2)c1)c1ccccc1C(F)(F)F,inactive: 80%
2,CCN(CC)c1cc2c(cc1F)c(=O)c(S(=O)(=O)c1ccc(C)cc1)cn2Cc1ccc(F)cc1,inactive: 71%
3,CCOc1ccc(NC(=O)[C@H](Cc2ccccc2)N2Cc3ccccc3C2=O)cc1,inactive: 93%
4,O=C(NCCc1ccc(Cl)cc1)c1nc(-c2cccc(F)c2)n2c1CCCCC2,inactive: 140%
5,CCCN1CCN(c2ncnc3sc(C(=O)Nc4cccc(Cl)c4C)c(C)c23)CC1,inactive: 78%
6,CC(C)c1ccccc1Oc1c(C(F)(F)F)oc2c(CN3CCN(C)CC3)c(O)ccc2c1=O,inactive: 71%
7,Cn1c(-c2ccc(S(=O)(=O)N3CCCC3)cc2)csc1=Nc1ccc(Cl)c(Cl)c1,inactive: 63%
8,CCC1CCc2nc3sc(C(=O)Nc4ccc(F)c(F)c4)c(N)c3cc2C1 (configuration not stated),inactive: 91%
9,COc1ccc(NC(=O)CSc2nc3c(c(=O)[nH]2)CCC3)cc1,inactive: 80%
10,CCOC(=O)c1c(C)c(C(=O)NCc2ccc(Cl)cc2)c(C)n1CC,inactive: 93%
11,CCOc1ccccc1Nc1sc(C(=O)c2ccc(Cl)cc2)c(N)c1C(=O)NCCc1ccccc1,inactive: 87%
12,Brc1ccc(CN2CCc3nc(N4CCN(c5ncccn5)CC4)ncc3C2)cc1,inactive: 65%
13,O=C(Cn1c(=O)n(CCc2ccccc2)c(=O)c2c3c(sc21)CCCC3)Nc1ccc(F)c(F)c1,inactive: 98%
14,CCCc1nnc(NC(=O)Cc2coc3ccc(C)cc23)s1,inactive: 87%
15,Cc1ccccc1NC(=O)CSc1nc2ccccc2c2nc(CCn3c(C)nc4ccccc43)nn12,inactive: 65%
16,N#CCCCn1c(O)c(N=NC(=O)C2COc3ccccc3O2)c2ccccc21 (configuration not stated),inactive: 104%
17,COc1ccc(NCc2cc3ccc(OC)cc3n(CC(=O)Nc3cccc(OC)c3)c2=O)cc1,inactive: 110%
18,Cc1ccc(CNC(=O)c2cn(C)c3ccc(S(=O)(=O)N4CCOCC4)cc3c2=O)cc1,inactive: 134%
19,COc1ccccc1N1CCN(C(=O)c2cc3c(=O)oc4ccc(C)cc4c3s2)CC1,inactive: 115%
20,CCOc1ccc(-c2nc(CNC(=O)Nc3ccccc3)c(C)o2)cc1,inactive: 99%
21,COc1ccc(OC)c(S(=O)(=O)Nc2cccc(-c3ccc(N4CCCCCC4)nn3)c2)c1,inactive: 81%
22,CCn1c(C(=O)N2CCC(C(=O)NCCCOC)CC2)cc2sccc21,inactive: 83%

row,Structure (SMILES),survival
1,COc1cc(NC(=O)c2nn(-c3ccc(F)cc3)c(=O)n(C)c2=O)cc(OC)c1OC,inactive: 140%
2,CC1Cc2ccccc2N1C(=O)CSc1nccc(=O)[nH]1 (configuration not stated),inactive: 111%
3,O=C1CCCc2c1cc(C(=O)N1CCOCC1)c(=O)n2-c1ccccc1,inactive: 105%
4,Cc1cc(C)c(/C=C/c2onc(C)c2S(=O)(=O)N2CCC(C(=O)Nc3ccc(Cl)cc3C)CC2)c(C)c1,inactive: 74%
5,O=C(COCc1cc(-c2cccs2)on1)NCc1cccc(Cl)c1,inactive: 121%
6,Cn1nnc2cc(C(=O)Nc3cccnc3)ccc21,inactive: 107%
7,Cc1cn(S(=O)(=O)c2ccc(F)c(Cl)c2)cn1,inactive: 74%
8,Cc1ccccc1NC(=O)c1c(NC(=O)C(F)(F)F)sc2c1CCCCC2,active: 1%
9,Cc1ccc(C(=O)c2sc(Nc3ccc(F)cc3)nc2N)c(C)c1,inactive: 73%
10,Cc1ccc(C(=O)NC2CC3CCCC(C2)N3C(=O)NC2CCCCC2)cc1 (configuration not stated),inactive: 101%
11,Cc1cc(=O)n2c([nH]c3ccccc32)c1C(=O)O,inactive: 106%
12,COc1ccc(CN(C(=O)c2ccc(CN3CCOCC3)o2)C(C(=O)NCC2CCCO2)c2ccc(F)cc2)cc1 (configuration not stated),inactive: 103%
13,CC1=C(c2ccc(C)cc2)S(=O)(=O)N(Cc2ccc(C(=O)NCc3ccccc3F)cc2)C1=O,inactive: 89%
14,O=C(NC1CCCCC1)C(c1ccco1)N(Cc1ccccc1)C(=O)Cn1nnc2ccccc21 (configuration not stated),inactive: 110%
15,O=C1CCCc2[nH]c(=O)c(-c3nc(-c4cccc([N+](=O)[O-])c4)cs3)cc21,inactive: 69%
16,COc1ccc(-c2nc(CNC(=O)NC3CCCCC3)c(C)o2)c(OC)c1,inactive: 67%
17,Cc1ccc2c(c1)C(C)(c1ccccc1)CC(C)(C)N2C(=O)c1ccc(F)cc1 (configuration not stated),active: -2%
18,CC(=O)c1ccc(NC(=O)Cn2c(=O)oc3cc(S(=O)(=O)N4CCCCC4)ccc32)cc1,inactive: 86%
19,CCOC(=O)c1cc2c(=O)n3ccccc3nc2n(Cc2ccco2)c1=NC(=O)c1ccc(F)cc1,inactive: 79%
20,O=C(CCCn1c(=O)[nH]c2ccccc2c1=O)N1CCN(c2ccccc2)CC1,inactive: 135%
21,O=S(=O)(NCCc1cn2ccsc2n1)c1ccc(Cl)cc1,inactive: 129%
